Test results: the antibiotic and cytotoxicity screens of Wong et al. (2023)
This is one part of the list.

Tested on: S. aureus RN4220
Experiment: growth inhibition call (relative growth <= 0.2)
Details: 50 µM

Growth inhibition call, inactive:
COc1ccc(NC(=O)Nc2ccc3c(c2)C(=O)N([C@H](C)CO)C[C@H](C)[C@H](CN(C)Cc2ccncc2)OCCCC[C@H](C)O3)cc1, CCCNC(=O)N[C@@H]1CC[C@H](CC(=O)N2CCN(C)CC2)O[C@@H]1CO, C[C@H]1CN([C@@H](C)CO)C(=O)c2cc(NC(=O)Nc3cccc4ccccc34)ccc2O[C@@H]1CN(C)C(=O)Nc1ccc(F)cc1, COc1ccc(CN(C)C[C@@H]2OCCCC[C@H](C)Oc3ccc(NC(=O)NC(C)C)cc3C(=O)N([C@H](C)CO)C[C@@H]2C)cc1, CC(C)CC#Cc1ccc2c(c1)O[C@@H](CN(C)S(=O)(=O)c1ccc(F)cc1)[C@H](C)CN([C@@H](C)CO)S2(=O)=O, C[C@@H]1CCCCO[C@H](CN(C)S(=O)(=O)c2cn(C)cn2)[C@H](C)CN([C@@H](C)CO)C(=O)c2cc(NS(=O)(=O)c3ccccc3)ccc2O1, C[C@H](CO)N1C[C@H](C)[C@H](CN(C)S(=O)(=O)c2cn(C)cn2)Oc2ncc(C#CC(C)(C)O)cc2C1=O, Cc1c(-c2ccnn2C)cc(C(=O)NCc2ccc(S(C)(=O)=O)cn2)c(=O)n1-c1cccc(C(F)(F)F)c1, CO[C@H]1CN(C)C(=O)c2cc(NS(=O)(=O)c3cn(C)cn3)ccc2OC[C@H](C)N(Cc2cccc(F)c2)C[C@H]1C
